Structures are written as SMILES. Several values for one entry are separate records, joined by “and”; a condition that tells them apart may be missing. Identical values can stand only once. Like-named read-outs stand apart in the source and are kept apart here. A value given as a limit tells only on which side of the number the result lay.

Consider 26 compounds from patent US10954258B2, “STAT3 dimerization inhibitors” (H. LEE MOFFITT CANCER CENTER AND RESEARCH INSTITUTE, INC., priority 2012, dated 2021).

The assay has as its target GST-tagged, full-length human STAT3 protein (Homo sapiens, UniProt P40763). Kind of assay: competitive fluorescence-polarization (FP) assay of STAT3 dimerization inhibition. The class given is binding. To be noted: for IC50: FP assay. On the procedure:
The ability of the libraries 9, 17 and 20 to inhibit STAT3 dimerization was evaluated by a competitive, fluorescence-polarization (FP)-based assay, as developed by Schust and Berg (Schust, et al., Chem. Biol. 2006; 13:1235-1242; Schust, et al., Anal. Biochem. 2004; 330:114-118) using full length STAT3 (N-terminal GST, SignalChem, Richmond, BC, Canada) and the fluorescent probe peptide 5-FAM-G(pTyr)LPQTV-CONH2 (GenScript, Piscataway, N.J., USA)(Id.). This peptide, derived from the gp130 IL6 receptor binds to the STAT3 SH2 domain; blocking its binding provides a measure of inhibition of STAT3 dimerization which binds through the sequence (pTyr)LKTKF (Ren, et al., Bioorg. Med. Chem. Lett. 2003:13:633-636).
Fluorescence polarization (FP) assay was conducted based on fluorescence signal differences between free and STAT3-bound fluorescently labeled peptide as described by Schust and Berg (Anal. Biochem. 2004; 330(1):114-118; Chem. Biol. 2006; 13(11):1235-1242). […] For evaluating compounds, STAT3 protein was incubated with various concentrations of S3I-1757 or S3I-1756 at room temperature for 60 min in the assay buffer (50 mM NaCl, 10 mM Hepes, pH 7.5, 1 mM EDTA, 0.01% Triton-X100, 2 mM dithiothreitol). Fluorescent peptide was added at a final concentration of 10 nM and incubated for 30 min at room temperature following which the FP measurements were examined by 2104 EnVisionR Multilabel Reader (Pekin Elmer, Waltham, Mass., USA) using FITC FP Dual module with excitation filter of FITC FP 480 and emission filter of FITC FP P-pol535 and S-pol535. The Z′ value was derived per the equation Z′=1-(3SDbound+3SDfree)/(mPbound-mPfree), where SD is the standard deviation and mP is the average of fluorescence polarization.

Setting [1] is: Table 1, read-out: IC50(μM), in vitro STAT3 dimerization inhibitory activity of library 9.
The mark [2] stands for this setting: text b118, b119, read-out: IC50, STAT3 inhibitory activity.
Setting [3] is: read-out: % inhibition at 50 μM, text b118, b119.
Where [4] appears, read: Table 2, read-out: IC50 (μM), in vitro STAT3 dimerization inhibitory activity phosphonate library 17.

UniProt P40763, sequence (P40763 whole entry, the tested form may be a part): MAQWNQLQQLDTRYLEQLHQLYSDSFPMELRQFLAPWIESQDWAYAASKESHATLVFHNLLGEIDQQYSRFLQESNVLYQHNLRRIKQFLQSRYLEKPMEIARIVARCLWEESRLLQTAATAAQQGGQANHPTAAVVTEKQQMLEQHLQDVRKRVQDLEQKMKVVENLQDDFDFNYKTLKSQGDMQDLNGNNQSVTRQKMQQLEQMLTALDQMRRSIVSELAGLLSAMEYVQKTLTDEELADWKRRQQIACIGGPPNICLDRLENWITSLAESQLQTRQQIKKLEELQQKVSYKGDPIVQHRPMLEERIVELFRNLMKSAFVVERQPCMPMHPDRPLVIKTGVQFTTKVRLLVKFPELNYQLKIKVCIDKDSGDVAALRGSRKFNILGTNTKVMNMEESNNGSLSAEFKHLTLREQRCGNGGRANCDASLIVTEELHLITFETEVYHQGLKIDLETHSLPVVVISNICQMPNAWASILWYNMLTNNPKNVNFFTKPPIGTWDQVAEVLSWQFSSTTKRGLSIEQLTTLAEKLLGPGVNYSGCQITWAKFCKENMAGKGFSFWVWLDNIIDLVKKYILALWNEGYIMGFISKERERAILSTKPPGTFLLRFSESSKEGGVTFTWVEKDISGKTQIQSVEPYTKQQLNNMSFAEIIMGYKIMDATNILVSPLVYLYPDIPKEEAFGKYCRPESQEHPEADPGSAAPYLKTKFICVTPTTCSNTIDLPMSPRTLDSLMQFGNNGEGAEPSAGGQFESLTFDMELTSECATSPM

Turning to `Cc1ccc(S(=O)(=O)N(CC(=O)N(Cc2ccccc2)c2ccc(O)c(C(=O)O)c2)Cc2ccccc2)cc1` [Compound 9a, 5-(N-Benzyl-2-(N-benzyl-4-methylphenylsulfonamido)acetamido)-2-hydroxybenzoic acid], the IC50 (usually the concentration needed to halve the response being measured) under setting [1] turned out to be 201.3 ± 1.5 µM.

In the case of `O=C(O)c1cc(N(Cc2ccccc2)C(=O)CN(Cc2ccccc2)S(=O)(=O)c2ccc(-c3ccccc3)cc2)ccc1O` [Compound 9b, 5-(N-Benzyl-2-(N-benzylbiphenyl-4-ylsulfonamido)acetamido)-2-hydroxybenzoic acid], the IC50 under setting [1] was 22.2 ± 9.1 µM.

Turning to `Cc1ccc(S(=O)(=O)N(CC(=O)N(Cc2ccc(Cl)cc2)c2ccc(O)c(C(=O)O)c2)Cc2ccccc2)cc1` [Compound 9c, 5-(2-(N-Benzyl-4-methylphenylsulfonamido)-N-(4-chlorobenzyl)acetamido)-2-hydroxybenzoic acid], the IC50 under setting [2] is 50 ± 3.8 µM.

On to `O=C(O)c1cc(N(Cc2ccc(Cl)cc2)C(=O)CN(Cc2ccccc2)S(=O)(=O)c2ccc(-c3ccccc3)cc2)ccc1O` [Compound 9d, 5-(2-(N-Benzylbiphenyl-4-ylsulfonamido)-N-(4-chlorobenzyl)acetamido)-2-hydroxybenzoic acid], for which the half-maximal inhibitory concentration (IC50) under setting [2] turned out to be 15 ± 1.2 µM.

`COc1ccc(CN(C(=O)CN(Cc2ccccc2)S(=O)(=O)c2ccc(-c3ccccc3)cc2)c2ccc(O)c(C(=O)O)c2)cc1` [Compound 9f, 5-(2-(N-Benzylbiphenyl-4-ylsulfonamido)-N-(4-methoxybenzyl)acetamido)-2-hydroxybenzoic acid]: the IC50 runs as follows: under setting [1], 22 ± 10 µM; under setting [2], 17 to 23 µM.

With `O=C(O)c1cc(N(Cc2ccc(C3CCCCC3)cc2)C(=O)CN(Cc2ccccc2)S(=O)(=O)c2ccc(-c3ccccc3)cc2)ccc1O` [Compound 9g, 5-(2-(N-Benzylbiphenyl-4-ylsulfonamido)-N-(4-cyclohexylbenzyl)acetamido)-2-hydroxybenzoic acid], under setting [2], the IC50 was 17 to 23 µM and 23.3 µM.

Turning to `CCCCCCCc1ccc(CN(C(=O)CN(Cc2ccccc2)S(=O)(=O)c2ccc(-c3ccccc3)cc2)c2ccc(O)c(C(=O)O)c2)cc1` [Compound 9h, 5-(2-(N-Benzylbiphenyl-4-ylsulfonamido)-N-(4-heptylbenzyl)acetamido)-2-hydroxybenzoic acid], the IC50 under setting [2] is 17 to 23 µM and 19 µM.

With `CC(C)Cc1ccc(CN(C(=O)CN(Cc2ccccc2)S(=O)(=O)c2ccc(-c3ccccc3)cc2)c2ccc(O)c(C(=O)O)c2)cc1` [Compound 9i, 5-(2-(N-Benzylbiphenyl-4-ylsulfonamido)-N-(4-isobutylbenzyl)acetamido)-2-hydroxybenzoic acid], the IC50 by setting is: under setting [1], 17 ± 3.6 µM; under setting [2], 17 to 23 µM.

Turning to `Cc1ccc(S(=O)(=O)N(C)CC(=O)N(Cc2ccccc2)c2ccc(O)c(C(=O)O)c2)cc1` [Compound 9j, 5-(N-Benzyl-2-(N,4-dimethylphenylsulfonamido)acetamido)-2-hydroxybenzoic acid], the IC50 reads like this: under setting [1], more than 1000 µM; under setting [2], more than 1000 µM.

On to `CN(CC(=O)N(Cc1ccccc1)c1ccc(O)c(C(=O)O)c1)S(=O)(=O)c1ccc(-c2ccccc2)cc1` [Compound 9k, 5-(N-Benzyl-2-(N-methylbiphenyl-4-ylsulfonamido)acetamido)-2-hydroxybenzoic acid], for which the IC50 under setting [1] amounted to 57 ± 13 µM.

As to `CN(CC(=O)N(Cc1ccc(Cl)cc1)c1ccc(O)c(C(=O)O)c1)S(=O)(=O)c1ccc(-c2ccccc2)cc1` [Compound 9l, 5-(N-(4-Chlorobenzyl)-2-(N-methylbiphenyl-4-ylsulfonamido)acetamido)-2-hydroxybenzoic acid], under setting [2], the IC50 came to 61 ± 6 µM.

`Cc1ccc(S(=O)(=O)N(C)CC(=O)N(Cc2ccc(C3CCCCC3)cc2)c2ccc(O)c(C(=O)O)c2)cc1` [Compound 9m, 5-(N-(4-Cyclohexylbenzyl)-2-(N,4-dimethylphenylsulfonamido)acetamido)-2-hydroxybenzoic acid]: the IC50 under setting [1] turned out to be 45 ± 12 µM.

Turning to `CN(CC(=O)N(Cc1ccc(C2CCCCC2)cc1)c1ccc(O)c(C(=O)O)c1)S(=O)(=O)c1ccc(-c2ccccc2)cc1` [Compound 9n, 5-(N-(4-Cyclohexylbenzyl)-2-(N-methylbiphenyl-4-ylsulfonamido)acetamido)-2-hydroxybenzoic acid], the IC50 under setting [1] turned out to be 32 ± 12 µM.

In the case of `CCCCCCCc1ccc(CN(C(=O)CN(C)S(=O)(=O)c2ccc(-c3ccccc3)cc2)c2ccc(O)c(C(=O)O)c2)cc1` [Compound 9o, 5-(N-(4-Heptylbenzyl)-2-(N-methylbiphenyl-4-ylsulfonamido)acetamido)-2-hydroxybenzoic acid], under setting [1], the 50% inhibitory concentration (IC50) was 22 ± 8 µM.

As to `CC(C)Cc1ccc(CN(C(=O)CN(C)S(=O)(=O)c2ccc(-c3ccc(Cl)cc3)cc2)c2ccc(O)c(C(=O)O)c2)cc1` [Compound 9p, 5-(2-(4′-Chloro-N-methylbiphenyl-4-ylsulfonamido)-N-(4-isobutylbenzyl)acetamido)-2-hydroxybenzoic acid], the IC50 under setting [1] amounted to 20 ± 7.1 µM.

Turning to `CN(CC(=O)N(Cc1ccc(Cl)cc1)c1ccc(O)c(C(=O)O)c1)S(=O)(=O)c1ccc(-c2ccc(Cl)cc2)cc1` [Compound 9q, 5-(2-(4′-Chloro-N-methylbiphenyl-4-ylsulfonamido)-N-(4-chlorobenzyl)acetamido)-2-hydroxybenzoic acid], under setting [1], the IC50 was found to be 43 ± 6 µM.

As to `COc1ccc(CN(C(=O)CN(C)S(=O)(=O)c2ccc(-c3ccc(Cl)cc3)cc2)c2ccc(O)c(C(=O)O)c2)cc1` [Compound 9r, 5-(2-(4′-Chloro-N-methylbiphenyl-4-ylsulfonamido)-N-(4-methoxybenzyl)acetamido)-2-hydroxybenzoic acid], the IC50 under setting [1] amounted to 50 ± 9.1 µM.

In the case of `CCCCCCCc1ccc(CN(C(=O)CN(C)S(=O)(=O)c2ccc(-c3ccc(F)cc3)cc2)c2ccc(O)c(C(=O)O)c2)cc1` [Compound 9s, 5-(2-(4′-Fluoro-N-methylbiphenyl-4-ylsulfonamido)-N-(4-heptylbenzyl)acetamido)-2-hydroxybenzoic acid], the IC50 under setting [1] came to 23 ± 0.3 µM.

Regarding `O=C(O)c1cc(N(Cc2ccc(N3CCCCC3)cc2)C(=O)CN(Cc2ccccc2)S(=O)(=O)c2ccc(-c3ccccc3)cc2)ccc1O` [Compound 9t, 5-(2-(N-Benzylbiphenyl-4-ylsulfonamido)-N-(4-(piperidin-1-yl)benzyl)acetamido)-2-hydroxybenzoic acid], the IC50 runs as follows: under setting [1], more than 300 µM; under setting [2], more than 300 µM.

As to `O=C(O)c1cc(N(Cc2cccc(-c3ccncc3)c2)C(=O)CN(Cc2ccccc2)S(=O)(=O)c2ccc(-c3ccccc3)cc2)ccc1O` [Compound 9u, 5-(2-(N-Benzylbiphenyl-4-ylsulfonamido)-N-(3-(pyridin-4-yl)benzyl)acetamido)-2-hydroxybenzoic acid], the IC50 under setting [1] was found to be 33.5 ± 1.8 µM.

On to `O=C(O)c1cc(N(Cc2ccc(N3CCOCC3)cc2)C(=O)CN(Cc2ccccc2)S(=O)(=O)c2ccc(-c3ccccc3)cc2)ccc1O` [Compound 9v, 5-(2-(N-Benzylbiphenyl-4-ylsulfonamido)-N-(4-morpholinobenzyl)acetamido)-2-hydroxybenzoic acid], for which the IC50 under setting [2] was 94.7 ± 0.32 µM.

In the case of `CN(CC(=O)N(Cc1ccc(N2CCCCC2)cc1)c1ccc(O)c(C(=O)O)c1)S(=O)(=O)c1ccc(-c2ccccc2)cc1` [Compound 9w, 2-Hydroxy-5-(2-(N-methylbiphenyl-4-ylsulfonamido)-N-(4-(piperidin-1-yl)benzyl)acetamido)benzoic acid], the inhibition – broadly, the percentage by which the read-out fell short of the control – at 50 µM by setting is: (read-out: % inhibition at 50 μM, library 9, Table 1) 14.4 ± 0.6%; under setting [3], 14.4%.

Consider `CN(CC(=O)N(Cc1cccc(-c2ccncc2)c1)c1ccc(O)c(C(=O)O)c1)S(=O)(=O)c1ccc(-c2ccccc2)cc1` [Compound 9x, 2-Hydroxy-5-(2-(N-methylbiphenyl-4-ylsulfonamido)-N-(3-(pyridin-4-yl)benzyl)acetamido)benzoic acid], for which the IC50 under setting [1] came to 35.3 ± 12.7 µM.

`O=C(c1ccc(Oc2ccccc2)cc1)N(Cc1ccc(C2CCCCC2)cc1)c1ccc(P(=O)(O)O)cc1` [Compound 17a, 4-(N-(4-Cyclohexylbenzyl)-4-phenoxybenzamido)phenylphosphonic acid]: the half-maximal inhibitory concentration (IC50) under setting [4] was determined as 42 ± 0.8 µM.

Consider `O=C(c1ccc(Oc2ccccc2)cc1)N(Cc1ccc(C2CCCCC2)cc1)c1cccc(P(=O)(O)O)c1` [Compound 17b, 3-(N-(4-cyclohexylbenzyl)-4-phenoxybenzamido)phenylphosphonic acid], for which the inhibition at 50 µM runs as follows: (read-out: % inhibition at 50 μM, phosphonate library 17, Table 2) 17.9 ± 0.5%; under setting [3], 18%.

For `O=C(c1ccc(Oc2ccccc2)cc1)N(Cc1ccc(C2CCCCC2)cc1)c1ccc(CP(=O)(O)O)cc1` [Compound 17c, 4-(N-(4-Cyclohexylbenzyl)-4-phenoxybenzamido)benzylphosphonic acid], the IC50 under setting [4] is 28.4 ± 2.9 µM.
